The supplement of paper PMC11876631
± gives the standard deviation of the averaged measurements. Laboratory Escherichia coli strains with one amino-acid change in an essential protein, pooled on minimal glucose agar with carbenicillin or gentamicin at twice the control MIC (plus kanamycin and chloramphenicol for the plasmids), 48 h. Fold change of barcode share against drug-free plates; higher = less susceptible. Active = above 20 in both replicates (the paper's putatively resistant). '<' = one read or none on drug, '>' = one read or none on a drug-free plate. Shares are relative, so most strains fall below 1 when a few take over. Listed are strains with at least 15 reads on both drug-free plates, and hits; most hits rest on fewer reference reads. Replicate rank correlation about 0.5. Edits are read from barcodes.

B1: pyrC; numbered along this chain (parent)
chain: MTAPSQVLKIRRPDDWHLHLRDGDMLKTVVPYTSEIYGRAIVMPNLAPPVTTVEAAVAYRQRILDAVPAGHDFTPLMTCYLTDSLDPNELERGFNEGVFTAAKLYPANATTNSSHGVTSIDAIMPVLERMEKIGMPLLVHGEVTHADIDIFDREARFIESVMEPLRQRLTALKVVFEHITTKDAADYVRDGNERLAATITPQHLMFNRNHMLVGGVRPHLYCLPILKRNIHQQALRELVASGFNRVFLGTDSAPHARHRKESSCGCAGCFNAPTALGSYATVFEEMNALQHFEAFCSVNGPQFYGLPVNDTFIELVREEQQVAESIALTDDTLVPFLAGETVRWSVKQ
B2: cysN; numbered along this chain (parent)
chain: MNTALAQQIANEGGVEAWMIAQQHKSLLRFLTCGSVDDGKSTLIGRLLHDTRQIYEDQLSSLHNDSKRHGTQGEKLDLALLVDGLQAEREQGITIDVAYRYFSTEKRKFIIADTPGHEQYTRNMATGASTCELAILLIDARKGVLDQTRRHSFISTLLGIKHLVVAINKMDLVDYSEETFTRIREDYLTFAGQLPGNLDIRFVPLSALEGDNVASQSESMPWYSGPTLLEVLETVEIQRVVDAQPMRFPVQYVNRPNLDFRGYAGTLASGRVEVGQRVKVLPSGVESNVARIVTFDGDREEAFAGEAITLVLTDEIDISRGDLLLAADEALPAVQSASVDVVWMAEQPLSPGQSYDIKIAGKKTRARVDGIRYQVDINNLTQREVENLPLNGIGLVDLTFDEPLVLDRYQQNPVTGGLIFIDRLSNVTVGAGMVHEPVSQATAAPSEFSAFELELNALVRRHFPHWGARDLLGDK
B3: mrdA; numbered along this chain (parent)
chain: MKLQNSFRDYTAESALFVRRALVAFLGILLLTGVLIANLYNLQIVRFTDYQTRSNENRIKLVPIAPSRGIIYDRNGIPLALNRTIYQIEMMPEKVDNVQQTLDALRSVVDLTDDDIAAFRKERARSHRFTSIPVKTNLTEVQVARFAVNQYRFPGVEVKGYKRRYYPYGSALTHVIGYVSKINDKDVERLNNDGKLANYAATHDIGKLGIERYYEDVLHGQTGYEEVEVNNRGRVIRQLKEVPPQAGHDIYLTLDLKLQQYIETLLAGSRAAVVVTDPRTGGVLALVSTPSYDPNLFVDGISSKDYSALLNDPNTPLVNRATQGVYPPASTVKPYVAVSALSAGVITRNTTLFDPGWWQLPGSEKRYRDWKKWGHGRLNVTRSLEESADTFFYQVAYDMGIDRLSEWMGKFGYGHYTGIDLAEERSGNMPTREWKQKRFKKPWYQGDTIPVGIGQGYWTATPIQMSKALMILINDGIVKVPHLLMSTAEDGKQVPWVQPHEPPVGDIHSGYWELAKDGMYGVANRPNGTAHKYFASAPYKIAAKSGTAQVFGLKANETYNAHKIAERLRDHKLMTAFAPYNNPQVAVAMILENGGAGPAVGTLMRQILDHIMLGDNNTDLPAENPAVAAAEDH

Variants of: B1
Experiment: barcode share on antibiotic plates over drug-free plates; higher = less susceptible
Conditions: with Escherichia coli (laboratory strain); antibiotic: carbenicillin; 2× MIC (3.1 µg/mL)
Experimental: (§1)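 A pool of E. coli strains, each edited to carry one amino-acid change in an essential protein, was grown for 48 h on minimal glucose agar with or without antibiotic; strain barcodes were sequenced; mean of two replicates.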

Variant	fold change of barcode share
F247P	> 41.6 [active]
L226A	1.28 ± 0.11
L226P	0.584 ± 0.12
L226Q	1.1 ± 0.44
L226D	> 54.6 [active]
V175D	0.478 ± 0.11

Same assay, conditions: with Escherichia coli (laboratory strain); antibiotic: gentamicin; 2× MIC (MIC 0.45 µg/mL)

Variant	fold change of barcode share
L127A	< 0.00456
L127W	0.00982 ± 0.0034
L127Q	0.0272 ± 0.02
L226A	0.0201 ± 0.016
L226P	0.281 ± 0.39
L226Q	0.00958 ± 0.0071
V175D	< 0.00922

Variants of: B2
Experiment: as above
Conditions: with Escherichia coli (laboratory strain); antibiotic: gentamicin; 2× MIC (MIC 0.45 µg/mL)
Experimental: as §1

Variant	fold change of barcode share
V293P	0.016 ± 0.011
L232Q	0.0854 ± 0.1
L232P	< 0.0173
L232A	0.0129 ± 0.0037
I138A	0.02731 ± 0.00021
M344A	0.0225 ± 0.018
M344Q	0.0256 ± 0.0051
I154A	< 0.0159

Same assay, conditions: with Escherichia coli (laboratory strain); antibiotic: carbenicillin; 2× MIC (3.1 µg/mL)

Variant	fold change of barcode share
V293D	9.6 ± 5.1
V293Q	1.17 ± 0.12
V293A	1.4 ± 0.19
L232Q	1.47 ± 0.4
L232A	0.593 ± 0.1
I138A	0.684 ± 0.079
I138Q	1.54 ± 0.62
I138D	2.67 ± 0.3
M344A	0.781 ± 0.14
M344P	37.9 [active]
M344W	0.982 ± 0.26
M344Q	0.682 ± 0.089
M344D	22.7 [active]
V342Q	1.79 ± 0.18
V342A	0.789 ± 0.097
M19P	0.828 ± 0.27
M19A	0.712 ± 0.28
M19Q	0.471 ± 0.044
M19D	3.63 ± 0.72
M19W	0.913 ± 0.24
I154A	0.529 ± 0.38

Variants of: B3
Experiment: as above
Conditions: with Escherichia coli (laboratory strain); antibiotic: carbenicillin; 2× MIC (3.1 µg/mL)
Experimental: as §1

Variant	fold change of barcode share
V274A	0.266 ± 0.15
V274D	0.18 ± 0.056
V274Q	0.113 ± 0.083
I176A	0.146 ± 0.051
I176D	0.159 ± 0.055

Same assay, conditions: with Escherichia coli (laboratory strain); antibiotic: gentamicin; 2× MIC (MIC 0.45 µg/mL)

Variant	fold change of barcode share
V274A	0.0077 ± 0.0034
V274D	< 0.00868
V274Q	< 0.00736
I176A	< 0.00816
I176D	< 0.0173
